Laboratory results taken from PubChem BioAssay (NCATS).
“And” between values parts separate entries of the source, which are not always exact repeats. Identical values can stand only once. Inconclusive means that the source gave no clear call. Such entries were picked first, then a sample of the others. A potency beside an inconclusive call is a rough fit, not a confirmed value. The source made the active and inactive calls. The call rests on the fitted dose curve; in most records, active means well fitted cell-killing curve with a large enough effect; inconclusive means small, poorly fitted or top-dose-only effect; inactive means no such curve, though single readings can be large or run the other way.

Assays:
[1] = qHTS of pediatric cancer cell lines to identify multiple opportunities for drug repurposing: Primary screen for Rh30 cells (AID 1347107); further: nearly all actives have a fitted effect of over 75% in size
Procedure, shortened: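 Cells (500-1,000/well) rested 5 h, then received compounds for 48 h; metabolically active cells were measured by CellTiter-Glo luminescence. Final concentrations spanned up to 46 µM (MIPE, 11-point) or 0.59 nM-46 µM (NPC, 8-point) in primary screens, 11-point in follow-ups.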

[2] = qHTS of pediatric cancer cell lines to identify multiple opportunities for drug repurposing: Primary screen for Rh41 cells (AID 1347108); further: nearly all actives have a fitted effect of over 70% in size
Procedure, shortened: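 Phenotypic viability qHTS, 48 h compound exposure, CellTiter-Glo luminescence read-out; multi-concentration dosing so that potency and efficacy derive directly from the primary screen's curves.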
Potency means the concentration at half of the fitted maximal effect; tags describe the fitted curve by direction and shape.

| Structure (SMILES) | Potency [1] | Potency [2] |
| --- | --- | --- |
| CCOC(=O)C1=C(C)NC2=C(C(=O)CC(C)(C)C2)C1c1ccc(-c2ccccc2)cc1 (stereo unspecified) | inconclusive: 9.35 µM [cytotoxic, partial curve] | active: 18.7 µM |
| CC[C@H](C)n1cc(C)c2c(C(=O)NCc3c(C)cc(C)[nH]c3=O)cc(-c3ccc(N4CCNCC4)nc3)cc21 | inconclusive: 14.8 µM [cytotoxic, partial curve] | active: 18.7 µM |
| Oc1c(I)cc(I)c2cccnc12 | inactive | inconclusive: 18.8 µM [cytotoxic, single point] |
| COc1cc2c(Oc3ccc4[nH]c(C)cc4c3F)ncnc2cc1OCCCN1CCCC1 | active: 23.5 µM | active: 18.7 µM |
| O=C(CCCN1CCC(O)(c2cccc(C(F)(F)F)c2)CC1)c1ccc(F)cc1 | inactive | inactive |
| CC(=O)OC[C@@H]1O[C@@H](n2ccc(=O)[nH]c2=O)[C@H](OC(C)=O)[C@H]1OC(C)=O | inconclusive: 0.833 µM [cytotoxic, partial curve, poor fit] | inconclusive: 1.87 µM [cytotoxic, partial curve] |
| O=C(c1ccc(C(=O)N2CCC(N3CCCC3)CC2)c(Nc2ccccc2)c1)N1CCC(N2CCCC2)CC1 | inconclusive: 14.8 µM [cytotoxic, partial curve] | inconclusive: 8.33 µM [cytotoxic, partial curve] |
| CC(C)C[C@H](NC(=O)[C@@H](O)[C@H](N)Cc1ccccc1)C(=O)O | inconclusive: 29.6 µM [cytotoxic, single point] | active: 23.5 µM |
| CC(C)c1cnn2c(NCc3ccccc3)cc(NCCCCCCN)nc12 | inconclusive: 5.9 µM [cytotoxic, partial curve] | active: 7.43 µM |
| CC(C)n1cnc2c(NCCc3ccc(O)cc3)nc(-c3csc4ccccc34)nc21 | active: 18.7 µM | active: 11.8 µM |
| C[C@]12C=CC(=O)N[C@@H]1CC[C@H]1[C@H]3CC[C@@H](C(=O)Nc4cc(C(F)(F)F)ccc4C(F)(F)F)[C@@]3(C)CC[C@@H]12 | inactive | inconclusive: 18.7 µM [cytotoxic, partial curve, poor fit] |
| Cc1nc(NC(=O)N2CCC[C@@H]2C(N)=O)sc1-c1csc(C(C)(C)C)n1 | active: 14.8 µM | active: 11.8 µM |
| NC(CS)C(=O)O (stereo unspecified) | inactive | inactive |
| C[C@@H]1COC(Nc2ccc3ncnc(Nc4ccc(OCc5nccs5)c(Cl)c4)c3c2)=N1 | inconclusive: 10.5 µM [cytotoxic, partial curve] | inconclusive: 3.72 µM [cytotoxic, partial curve, poor fit] |
| Clc1ccc(Nc2nnc(Cc3ccncc3)c3ccccc23)cc1 | inconclusive: 16.6 µM [cytotoxic, partial curve] | inconclusive: 14.8 µM [cytotoxic, partial curve] |
| O=S(=O)(O)c1ccc2nc(-c3ccccc3)[nH]c2c1 | inconclusive: 16.8 µM [cytotoxic, single point] | inconclusive: 16.8 µM [cytotoxic, single point] |
| CC1(C)C(N(O)C(=O)Nc2ccc(Cl)cc2)N(c2ccc(Cl)cc2)C(=O)N1CC(=O)NN=CC=Cc1ccc([N+](=O)[O-])o1 (stereo unspecified) | inconclusive: 18.7 µM [cytotoxic, partial curve] | active: 14.8 µM |
| CCCCCCCCCCCCCCCC[N+](C)(C)CCN(Cc1ccc(OC)cc1)c1ncccn1 | active: 16.8 µM | active: 16.8 µM |
| CCn1cc(C(=O)O)c(=O)c2cc(F)c(N3CCN(C)CC3)cc21 | inactive | inactive |
| CN(C)c1ccc(-c2nc3ncc(Cl)c(N4CCN(CC(=O)Nc5nccs5)CC4)c3[nH]2)cc1 | inconclusive: 5.9 µM [cytotoxic, partial curve, poor fit] | inconclusive: 5.26 µM [cytotoxic, partial curve] |
| CNc1nc(-c2ccc3c(N)n[nH]c3c2)cc(N2C[C@@H](C(=O)NC3CCCCC3)CC[C@@H]2C)n1 | inactive | inconclusive: 6.62 µM [cytotoxic, partial curve] |
| Cc1cc2c(C(C)C)c(O)c(O)c(C=O)c2c(O)c1-c1c(C)cc2c(C(C)C)c(O)c(O)c(C=O)c2c1O | inconclusive: 16.8 µM [cytotoxic, single point] and inconclusive: 18.7 µM [cytotoxic, partial curve] | active: 16.8 µM and active: 18.7 µM |
| N#CCNC(=O)c1ccc(-c2ccnc(Nc3ccc(N4CCOCC4)cc3)n2)cc1 | inconclusive: 13.2 µM [cytotoxic, partial curve] | active: 18.7 µM |
